T1: Human-NKP30-His (human, UniProt O14931 19-135, limits assumed)
T1 construct: Coated on the ELISA plate at 0.5 µg/mL; also called NKP30 protein; not shown: His tag
T1 sequence (looked up): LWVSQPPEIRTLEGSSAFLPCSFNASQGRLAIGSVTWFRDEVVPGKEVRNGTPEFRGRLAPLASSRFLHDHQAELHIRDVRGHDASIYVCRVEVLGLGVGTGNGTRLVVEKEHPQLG


Experiments:
[1] = target: Claudin18.2 on PANC-1-Claudin18.2 cells (UniProt P56856); assay: flow cytometry on PANC-1-Claudin18.2 cells, PE anti-human IgG Fc secondary antibody
[2] = target: T1, Human-NKP30-His; assay: ELISA, plate coated with Human-NKP30-His, detection with HRP goat anti-human IgG-Fc
Method: Human-NKP30-His was diluted to 0.5 μg/mL with PBS buffer at pH 7.4, added into the 96-well ELISA plate at 100 μL per well, coated overnight at 4° C., and blocked with 1% BSA blocking solution for 1 hour. The plate was washed 3 times with PBST, and the constructed antibodies were diluted to 10 μg/mL with 0.5% BSA sample diluent as the starting concentration, and then diluted by 3-fold gradient (11 gradients in total). A negative control (blank well and IgG1 isotype control) and a positive control were set, and the positive control was a NKP30 humanized antibody (sequence shown in SEQ ID No.32), and incubated at 37° C. for 1 h at 100 μL per well. […] The absorbance value of each well in the 96-well plate was determined by selecting the wavelength of 450 nm and the reference wavelength of 570 nm on a multifunctional enzyme marker, and the absorbance value (OD)=OD₄₅₀ₙₘ−OD₅₇₀ₙₘ. The logarithm of the concentration of the constructed antibodies were taken as the abscissa, and the measured absorbance value of each well was taken as the ordinate, and the Sigmoidaldose-response (Variable Slope) method (GraphPad Prism software, GraphPad Software, San Diego, California) was selected for nonlinear regression to obtain the binding curve of the target antibody to NKP30 protein.

Binder | percent of cells in gate M2 [1] [%] | binding result [2]
CNV-C1 (protein) light: DIVMTQSPSSLTATARERVTMSCKSSQSLLNSGNQKNYLTWYQQKPGQPPKLLIYWASTRESGVPDRFTGSGSGTDFTLTVSSVQAEDLAVYYCQNAYFYPFTFGSGTKLEIKRTVAAPSVFIFPPSDEQLKSGTASVVCLLNNFYPREAKVQWKVDNALQSGNSQESVTEQDSKDSTYSLSSTLTLSKADYEKHKVYACEVTHQGLSSPVTKSFNRGECGGGGSGGGGSGGGGSGGGGSEVQLVESGGGLVQPGGSLRLSCAASGITFSRSVMGWFRQAPGKLRELVAGITSDDNTDYADSVKGRFTISRDNSKNTLYLQMNSLRAEDTAVYYCNILPDSRLGWGQGTLVTVSS heavy: EVQLVESGGGLVKPGGSLKLSCTASGFTFSSYVMSWVRQTPEKRLEWVATINDGGSYTYYPDNLKGRFTISRDNAKNNLYLQMSHLRSEDTARYYCSVLRRGNAMDYWGQGTSVTVSS[gap - human IgG1 constant region]GGSGGGGSGGGGSGGGGSEVQLVESGGGLVQPGGSLRLSCAASGYTFTNYGMNWVRQAPCKGLEWVGWINTYTGEPTYAADFKRRFTFSLDTSKSTAYLQMNSLRAEDTAVYYCAKYPHYYGSSHWYFDVWGQGTLVTVSSGGGGSGGGGSGGGGSDIQMTQSPSSLSASVGDRVTITCSASQDISNYLNWYQQKPGKAPKVLIYFTSSLHSGVPSRFSGSGSGTDFTLTISSLQPEDFATYYCQQYSTVPWTFGCGTKVEIK | 51.3 | –
CNVR-C (other, It is a Claudin18.2 full-length antibody with the NKP30 VHH at the C-terminus of both light chains and VEGFR1 at the C-terminus of both heavy chains; also called constructed antibody CNVR-C; trifunctional antibody) light: DIVMTQSPSSLTATARERVTMSCKSSQSLLNSGNQKNYLTWYQQKPGQPPKLLIYWASTRESGVPDRFTGSGSGTDFTLTVSSVQAEDLAVYYCQNAYFYPFTFGSGTKLEIKRTVAAPSVFIFPPSDEQLKSGTASVVCLLNNFYPREAKVQWKVDNALQSGNSQESVTEQDSKDSTYSLSSTLTLSKADYEKHKVYACEVTHQGLSSPVTKSFNRGECGGGGSGGGGSGGGGSGGGGSEVQLVESGGGLVQPGGSLRLSCAASGITFSRSVMGWFRQAPGKLRELVAGITSDDNTDYADSVKGRFTISRDNSKNTLYLQMNSLRAEDTAVYYCNILPDSRLGWGQGTLVTVSS heavy: EVQLVESGGGLVKPGGSLKLSCTASGFTFSSYVMSWVRQTPEKRLEWVATINDGGSYTYYPDNLKGRFTISRDNAKNNLYLQMSHLRSEDTARYYCSVLRRGNAMDYWGQGTSVTVSS[gap - human IgG1 constant region]GGSGGGGSGGGGSGGGGSTGSDTGRPFVEMYSEIPEIIHMTEGRELVIPCRVTSPNITVTLKKFPLDTLIPDGKRIIWDSRKGFIISNATYKEIGLLTCEATVNGHLYKTNYLTHRQTNTIIDVVLSPSHGIELSVGEKLVLNCTARTELNVGIDFNWEYPSSKHQHKKLVLSPVNRDLKTQSGSEMKKFLSTLTIDGVTRSDQGLYTCAASSGLMTKKNSTFVRVHEK | 99 | binds

More lines, now with the values ahead:

percent of cells in gate M2 [1] [%] | binding result [2] | Binder
97 | – | CNVR-A (other, also called constructed antibody CNVR-A; trifunctional antibody) light: EVQLVESGGGLVQPGGSLRLSCAASGITFSRSVMGWFRQAPGKLRELVAGITSDDNTDYADSVKGRFTISRDNSKNTLYLQMNSLRAEDTAVYYCNILPDSRLGWGQGTLVTVSSGGGGSGGGGSGGGGSDIVMTQSPSSLTATARERVTMSCKSSQSLLNSGNQKNYLTWYQQKPGQPPKLLIYWASTRESGVPDRFTGSGSGTDFTLTVSSVQAEDLAVYYCQNAYFYPFTFGSGTKLEIKRTVAAPSVFIFPPSDEQLKSGTASVVCLLNNFYPREAKVQWKVDNALQSGNSQESVTEQDSKDSTYSLSSTLTLSKADYEKHKVYACEVTHQGLSSPVTKSFNRGEC heavy: EVQLVESGGGLVKPGGSLKLSCTASGFTFSSYVMSWVRQTPEKRLEWVATINDGGSYTYYPDNLKGRFTISRDNAKNNLYLQMSHLRSEDTARYYCSVLRRGNAMDYWGQGTSVTVSS[gap - human IgG1 constant region]GGSGGGGSGGGGSGGGGSTGSDTGRPFVEMYSEIPEIIHMTEGRELVIPCRVTSPNITVTLKKFPLDTLIPDGKRIIWDSRKGFIISNATYKEIGLLTCEATVNGHLYKTNYLTHRQTNTIIDVVLSPSHGIELSVGEKLVLNCTARTELNVGIDFNWEYPSSKHQHKKLVLSPVNRDLKTQSGSEMKKFLSTLTIDGVTRSDQGLYTCAASSGLMTKKNSTFVRVHEK
97.7 | – | CNVR-B (other, It is a Claudin18.2 full-length antibody with the NKP30 VHH at the N-terminus of both heavy chains and VEGFR1 at the C-terminus of both heavy chains; also called constructed antibody CNVR-B; trifunctional antibody) light: DIVMTQSPSSLTATARERVTMSCKSSQSLLNSGNQKNYLTWYQQKPGQPPKLLIYWASTRESGVPDRFTGSGSGTDFTLTVSSVQAEDLAVYYCQNAYFYPFTFGSGTKLEIKRTVAAPSVFIFPPSDEQLKSGTASVVCLLNNFYPREAKVQWKVDNALQSGNSQESVTEQDSKDSTYSLSSTLTLSKADYEKHKVYACEVTHQGLSSPVTKSFNRGEC heavy: EVQLVESGGGLVQPGGSLRLSCAASGITFSRSVMGWFRQAPGKLRELVAGITSDDNTDYADSVKGRFTISRDNSKNTLYLQMNSLRAEDTAVYYCNILPDSRLGWGQGTLVTVSSGGGGSGGGGSGGGGSEVQLVESGGGLVKPGGSLKLSCTASGFTFSSYVMSWVRQTPEKRLEWVATINDGGSYTYYPDNLKGRFTISRDNAKNNLYLQMSHLRSEDTARYYCSVLRRGNAMDYWGQGTSVTVSS[gap - human IgG1 constant region]GGSGGGGSGGGGSGGGGSTGSDTGRPFVEMYSEIPEIIHMTEGRELVIPCRVTSPNITVTLKKFPLDTLIPDGKRIIWDSRKGFIISNATYKEIGLLTCEATVNGHLYKTNYLTHRQTNTIIDVVLSPSHGIELSVGEKLVLNCTARTELNVGIDFNWEYPSSKHQHKKLVLSPVNRDLKTQSGSEMKKFLSTLTIDGVTRSDQGLYTCAASSGLMTKKNSTFVRVHEK
